Results on 46 molecules are retold here after article PMC4336329 (PLoS ONE, 2015).

Among all 310,000 compounds or so, about 2,200 (0.71%) showed an effect of 50% or more. Effects have a minus sign here. Some of the results follow.

The target of this test is human ether-à-go-go-related gene (hERG) potassium channel (human, UniProt Q12809). Put plainly: primary screen, population patch clamp on CHO cells stably expressing hERG.
human ether-à-go-go-related gene (hERG) potassium channel, sequence (Q12809 whole entry, looked up): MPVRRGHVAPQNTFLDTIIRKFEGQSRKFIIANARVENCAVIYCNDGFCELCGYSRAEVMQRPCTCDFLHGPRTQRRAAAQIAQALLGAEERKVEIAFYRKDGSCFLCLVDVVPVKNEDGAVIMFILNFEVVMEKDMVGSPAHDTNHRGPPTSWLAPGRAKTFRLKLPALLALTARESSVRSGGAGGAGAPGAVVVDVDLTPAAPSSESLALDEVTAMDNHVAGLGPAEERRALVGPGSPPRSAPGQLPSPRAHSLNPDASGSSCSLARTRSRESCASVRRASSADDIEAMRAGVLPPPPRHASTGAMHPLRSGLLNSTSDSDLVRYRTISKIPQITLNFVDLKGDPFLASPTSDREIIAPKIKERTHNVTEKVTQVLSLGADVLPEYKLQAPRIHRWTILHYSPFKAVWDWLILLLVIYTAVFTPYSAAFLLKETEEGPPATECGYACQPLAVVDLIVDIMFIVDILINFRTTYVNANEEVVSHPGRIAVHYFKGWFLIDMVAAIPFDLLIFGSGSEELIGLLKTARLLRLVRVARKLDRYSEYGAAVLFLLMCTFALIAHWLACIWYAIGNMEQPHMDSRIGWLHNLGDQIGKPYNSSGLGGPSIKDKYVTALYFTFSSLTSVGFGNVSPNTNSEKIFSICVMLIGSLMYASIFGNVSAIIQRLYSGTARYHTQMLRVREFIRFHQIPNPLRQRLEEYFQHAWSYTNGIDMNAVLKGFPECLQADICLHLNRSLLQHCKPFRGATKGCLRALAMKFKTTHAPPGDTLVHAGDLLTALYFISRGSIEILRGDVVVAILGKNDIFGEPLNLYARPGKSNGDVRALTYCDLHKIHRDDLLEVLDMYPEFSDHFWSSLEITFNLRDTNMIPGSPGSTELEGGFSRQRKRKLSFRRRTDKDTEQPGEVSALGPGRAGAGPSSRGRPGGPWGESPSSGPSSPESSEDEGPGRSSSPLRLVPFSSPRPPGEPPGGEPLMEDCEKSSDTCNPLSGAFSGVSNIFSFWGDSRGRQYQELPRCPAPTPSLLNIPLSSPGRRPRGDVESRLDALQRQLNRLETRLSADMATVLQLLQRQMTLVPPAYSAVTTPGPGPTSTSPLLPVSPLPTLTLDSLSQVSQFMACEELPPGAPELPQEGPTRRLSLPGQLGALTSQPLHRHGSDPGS
On to `CC(=O)N(CN1C(=O)CCC1=O)c1ccc(Cl)c(Cl)c1`, for which the “hERG current change (%, negative = inhibition) at 1uM” value is recorded as 4.95%.
The value for `CC1(C)Cc2c(sc3nc(C4CCCCC4)n(N)c(=O)c23)CO1` was 13.9%; that for `CC1CCCCN1CCNC(=O)C1CC(=O)N(c2ccc(F)c(Cl)c2)C1` (stereo not shown) was -31.3%; that for `NC(=O)CN(c1ccc([N+](=O)[O-])cc1)S(=O)(=O)c1ccccc1` was 1.01%.
Consider `Cc1cc(C)c2nc(NC(=O)c3ccco3)sc2c1`, for which the “hERG current change (%, negative = inhibition) at 1uM” value stood at 16.6%.
For `CN1CCC(NC(=O)Nc2ccc(Br)cc2)CC1`, the “hERG current change (%, negative = inhibition) at 1uM” value came to 3.59%.
Consider `Cc1[nH]c(=O)[nH]c(=S)c1C(=O)Nc1ccc(Cl)c(Cl)c1`, for which the “hERG current change (%, negative = inhibition) at 1uM” value is given as 16%.
In the case of `CCn1c(SCC(=O)O)nnc1C1CCCCC1`, the “hERG current change (%, negative = inhibition) at 1uM” value was 5.22%.
For `CCCCN(C(=O)CNC(=O)c1ccco1)C(C(=O)NC1CCCCC1)c1cccnc1` (stereo not shown), the “hERG current change (%, negative = inhibition) at 1uM” value is 2.11%.
For `Cc1cn(C2C=CC(CO)O2)c(=O)[nH]c1=O` (stereo not shown), the “hERG current change (%, negative = inhibition) at 1uM” value was found to be 7.44%.
The value for `COC(=O)Cc1c(C)c2ccc(OC(C)C)cc2oc1=O` was 4.34%.
In the case of `COc1ccc(CNc2nc3nc(C)c(Cl)c(=O)n3[nH]2)cc1OC`, the “hERG current change (%, negative = inhibition) at 1uM” value came to 5.7%.
For the molecule `COC(=O)[C@@H]1C[C@@H]2CC[C@@H](O)C[C@@H]2N1Cc1ccc(C(F)(F)F)cc1`, the “hERG current change (%, negative = inhibition) at 1uM” value is -0.86%.
As for `O=C(Nc1c(S(=O)(=O)c2ccccc2)csc1Br)c1ccccc1Cl`, the “hERG current change (%, negative = inhibition) at 1uM” value is listed as 15.4%.
On to `COC(=O)C1CCC(C)(C(=O)Nc2ccccc2)C1(C)C` (stereo not shown), for which the “hERG current change (%, negative = inhibition) at 1uM” value is recorded as 8.91%.
In the case of `COCCNC(=O)CCn1nc(-c2ccc(Cl)cc2)ccc1=O`, the “hERG current change (%, negative = inhibition) at 1uM” value is -0.638%.
`Cn1c(CSCc2ccc(F)cc2)nnc1SCC(=O)Nc1cccc(C(=O)O)c1`: the “hERG current change (%, negative = inhibition) at 1uM” value came to 15.4%.
Take `CC1CN(S(=O)(=O)c2cccc(C(=O)OC/C(O)=C(\C#N)c3nc4ccccc4[nH]3)c2)CC(C)O1` (stereo not shown): the “hERG current change (%, negative = inhibition) at 1uM” value is -0.741%.
The value for `CSc1nnc2c(n1)c(C)nn2-c1cccc(C)c1` was 3.47%; that for `CCOc1ccc(NC(=O)COC(=O)c2ccc3c(c2)OCO3)cc1` was 9.61%; that for `COC(=O)CCC(=O)OC1(C)C(=O)C=C2C=C(C3CC3)N(Cc3ccco3)C=C2C1=O` (stereo not shown) was 8.69%.
With `O=C(NCC1CCCO1)C1CCN(C2CCN(C3CCCCCC3)CC2)CC1` (stereo not shown), the “hERG current change (%, negative = inhibition) at 1uM” value turned out to be 10.6%.
For `Cc1cc[n+](-c2nc([O-])sc2/C=N/Nc2ccc([N+](=O)[O-])cc2)cc1`, the “hERG current change (%, negative = inhibition) at 1uM” value was determined as 11.2%.
As to `O=C(CSc1nc2ccc(Nc3nc(N4CCOCC4)nc(N4CCOCC4)n3)cc2s1)Nc1ccccc1F`, the “hERG current change (%, negative = inhibition) at 1uM” value was determined as 14.4%.
For the molecule `CCC(=O)Nc1ccc(NC(=O)c2cccc3c(Br)cccc23)cc1`, the “hERG current change (%, negative = inhibition) at 1uM” value was 4.85%.
The value for `Cc1noc2ncnc(Oc3ccccc3Cl)c12` was 17.6%; that for `CCOC(=O)c1c(NC(=O)c2cccs2)sc(C(=O)N(C)C)c1C` was 0.872%.
On to `Cc1cccc(NCCC(=O)c2ccc([N+](=O)[O-])cc2)c1C`, for which the “hERG current change (%, negative = inhibition) at 1uM” value amounted to 5.54%.
On to `CCc1c(O)nc(SCC(=O)Nc2ccc(Br)cc2)n(-c2ccc(C)cc2)c1=O`, for which the “hERG current change (%, negative = inhibition) at 1uM” value is 13%.
Take `COc1ccc2c(c1)c1ncn(CCN3CCCC3)c(=O)c1n2C`: the “hERG current change (%, negative = inhibition) at 1uM” value came out at 1.62%.
Consider `O=C1c2ccccc2-c2nnc(-c3ccc(O)cc3)cc21`, for which the “hERG current change (%, negative = inhibition) at 1uM” value was found to be 5.44%.
The value for `NC(=O)c1ccsc1NC(=O)COC(=O)Cc1ccccc1` was 7.04%; that for `O=C(CCCNS(=O)(=O)c1cccc2nsnc12)NC1CCCCC1` was 0.151%; that for `CC(=O)Nc1c2c(nn1-c1ccccc1C)CSC2` was 12.8%.
As for `Clc1ccc(N=C2SCC3CCCCN23)cc1` (stereo not shown), the “hERG current change (%, negative = inhibition) at 1uM” value came to 15.3%.
The value for `CCOc1cc(C(c2c(C)[nH][nH]c2=O)c2c(C)[nH][nH]c2=O)ccc1OS(=O)(=O)c1ccccc1` was -3.72%.
With `O=C(N/N=C/c1ccco1)C1CC1c1ccccc1` (stereo not shown), the “hERG current change (%, negative = inhibition) at 1uM” value is listed as 6.62%.
Take `O=C(N/N=C/c1ccccc1)c1ccc(OCc2ccccc2)cc1`: the “hERG current change (%, negative = inhibition) at 1uM” value came out at 2.61%.
Turning to `O=C(NCCNC(=O)c1ccc(Cl)cc1Cl)c1ccco1`, the “hERG current change (%, negative = inhibition) at 1uM” value worked out at 12%.
`Cc1ccc(C(=O)Nc2onc(C)c2C#N)cc1`: the “hERG current change (%, negative = inhibition) at 1uM” value was found to be 5.73%.
For the molecule `CCCCn1c(N)c(N(CC)C(=O)c2cc(CC)c(C)s2)c(=O)[nH]c1=O`, the “hERG current change (%, negative = inhibition) at 1uM” value is -2.08%.
With `CCCCC(O)(CCCC)C(=O)N/N=C(\C)c1ccc(Cl)cc1`, the “hERG current change (%, negative = inhibition) at 1uM” value is on record as -16.3%.
With `O/N=C/c1ccc(-c2cc(Cl)ccc2Cl)o1`, the “hERG current change (%, negative = inhibition) at 1uM” value worked out at 2.88%.
The value for `Cc1ccc(O)c(N)c1` was 4.74%; that for `O=C(Cn1ncc2c(=O)oc3ccccc3c21)NCC1COc2ccccc2O1` (stereo not shown) was 6.8%.
The value for `O=C(NCc1ccccc1)c1ccccc1NC(=O)C1CCCCC1` was 22.4%.
